Hit rate of the full screen: of about 390,000 compounds, about 17,000 (4.4%) were called active. Inconclusive results, whose numbers are uncertain, are shown with a selection of clear calls. Calls follow the shape of the dose curve; as a rule, active = well fitted inhibition curve with a large enough effect; inconclusive = small, poorly fitted or top-dose-only effect; inactive = no such curve, though single readings can be large or run the other way. Where the call is inconclusive, the potency comes from a doubtful curve fit.
The compounds below were run against Lysine-specific demethylase 4A (Homo sapiens) (UniProt O75164) (assay: qHTS Assay for Inhibitors of JMJD2A-Tudor Domain). Conditions: AlphaScreen JMJD2A-Tudor / H3K4me3 peptide binding; activity change, negative = inhibition: at 114 µM (top of the series).
Chain of UniProt O75164 (O75164 whole entry, looked up, the tested form may be a part): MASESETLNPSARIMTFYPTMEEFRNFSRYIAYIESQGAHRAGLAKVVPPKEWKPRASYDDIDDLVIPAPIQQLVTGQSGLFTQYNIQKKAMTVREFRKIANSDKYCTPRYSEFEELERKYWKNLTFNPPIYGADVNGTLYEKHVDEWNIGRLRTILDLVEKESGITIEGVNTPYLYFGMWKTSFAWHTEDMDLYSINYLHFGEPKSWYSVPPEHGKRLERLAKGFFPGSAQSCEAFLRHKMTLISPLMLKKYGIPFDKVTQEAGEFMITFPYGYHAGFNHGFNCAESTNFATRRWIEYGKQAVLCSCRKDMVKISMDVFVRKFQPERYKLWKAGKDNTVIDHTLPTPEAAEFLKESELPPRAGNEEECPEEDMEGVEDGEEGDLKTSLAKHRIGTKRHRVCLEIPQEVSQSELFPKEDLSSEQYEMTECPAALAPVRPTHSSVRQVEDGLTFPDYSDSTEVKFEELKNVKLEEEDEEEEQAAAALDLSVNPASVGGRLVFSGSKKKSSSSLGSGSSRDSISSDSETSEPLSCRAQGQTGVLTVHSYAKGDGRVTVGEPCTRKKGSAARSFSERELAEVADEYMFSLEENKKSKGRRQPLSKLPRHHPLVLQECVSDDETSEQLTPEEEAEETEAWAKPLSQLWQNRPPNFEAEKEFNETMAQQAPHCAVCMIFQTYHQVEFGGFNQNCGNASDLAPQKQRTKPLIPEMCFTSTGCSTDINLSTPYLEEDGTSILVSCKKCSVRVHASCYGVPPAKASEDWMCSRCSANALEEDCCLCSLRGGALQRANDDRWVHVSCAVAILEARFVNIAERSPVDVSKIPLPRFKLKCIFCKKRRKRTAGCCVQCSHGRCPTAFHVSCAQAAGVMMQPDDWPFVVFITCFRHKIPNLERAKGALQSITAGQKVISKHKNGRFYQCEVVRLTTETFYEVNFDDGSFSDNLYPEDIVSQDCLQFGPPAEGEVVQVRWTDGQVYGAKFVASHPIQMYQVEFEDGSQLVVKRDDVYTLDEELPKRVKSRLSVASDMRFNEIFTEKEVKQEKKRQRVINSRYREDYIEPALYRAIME
For `COc1ccc(OC)c(NC(=O)c2c(NC(=O)CCC(=O)O)sc3c2CCCCC3)c1`, the Potency was inconclusive: 63.1 µM [inhibitor, partial curve, poor fit].
`Cc1cc(NC(=O)CSc2nc(-c3cccs3)cc(C(F)(F)F)n2)no1` was tested, and the Potency was “inactive”.
In the case of `COC(=O)c1cc2oc(C)cc2n1Cc1cccc(Cl)c1`, the Potency is reported as “inactive”.
With `Cc1ccc(-n2c(=O)c3c(c4cc(C)ccc4n3C)n(CC(=O)NCCC3=CCCCC3)c2=O)cc1` the Potency was “inactive”.
For `c1ccc(-c2ccc(SCc3cccnc3)nn2)nc1`, the activity change, negative = inhibition was inconclusive: -100% [inhibitor].
With `O=C(NCc1cccc(Cl)c1)c1ccc(CS(=O)Cc2ccccc2Cl)o1` (centres undefined) the Potency was “inactive”.
`Oc1c(C(c2cccs2)N2CCN(c3cccc(Cl)c3)CC2)sc2ncnn12` (centres undefined) was tested, and the Potency was inconclusive: 56.2 µM [inhibitor, partial curve].
With `COc1ccccc1OCC(=O)NCC1(N2CCOCC2)CCCCC1` the Potency was “inactive”.
In the case of `Cc1ccc(-c2nc3ccccc3c(=O)n2NC(=O)c2cccs2)cc1`, the Potency is reported as inconclusive: 31.6 µM [inhibitor, single point].
With `CCN1CCN(S(=O)(=O)c2ccc(Cl)c(C(=O)Nc3ccccc3N3CCCC3)c2)CC1` the Potency was inconclusive: 63.1 µM [inhibitor, partial curve].
`Cc1cc(C)cc(C(=O)Nc2ccc(N3CCCC3)cc2)c1` was tested, and the Potency was inconclusive: 11.2 µM [inhibitor, partial curve].
In the case of `Cc1cccc(NCC(=O)NNC(=S)Nc2ccccc2)c1`, the Potency is reported as inconclusive: 79.4 µM [inhibitor, partial curve].
With `C[C@@H](NC(=O)c1nc[nH]c1C(=O)NC1CCN(C(=O)OC(C)(C)C)CC1)c1ccccc1` the Potency was inconclusive: 22.4 µM [inhibitor, full curve].
`FC(F)(F)c1ccc(-n2cn[nH]c2=S)cc1` was tested, and the Potency was active: 8.91 µM.
In the case of `C=C1CCN(c2ccc(C(=O)NCc3ccc(OC)cc3)cc2[N+](=O)[O-])CC1`, the Potency is reported as inconclusive: 11.2 µM [inhibitor, full curve].
In the case of `COCc1cc(C)n(CC(=O)Nc2ccc3c(c2)OCO3)c(=O)c1C#N`, the Potency is reported as “inactive”.
`CC(=O)NC(=S)NNC(=O)C(c1ccccc1)c1ccccc1` was tested, and the Potency was inconclusive: 39.8 µM [inhibitor, single point].
In the case of `O=C(O)C1=C[C@@H](c2ccc(C(F)(F)F)cc2)C[C@@H](OCCCCO)O1`, the Potency is reported as “inactive”.
With `CC(C)N(C(=O)COC(=O)c1cccc(N(C)C)c1)c1ccccc1` the Potency was inconclusive: 44.7 µM [inhibitor, partial curve].
For `COc1ccc(C2C(C#N)=C(N)Oc3n[nH]c(C)c32)cc1CN1CCN(c2ccc(F)cc2)CC1` (centres undefined), the Potency was active: 44.7 µM.
For `O=C(CCC(=O)N1CCN(c2ccccc2F)CC1)c1ccc(F)cc1`, the Potency was “inactive”.
`O=C(CN1C(=O)S/C(=C\C=C\c2ccccc2)C1=O)Nc1ccc(C(=O)O)cc1` was tested, and the Potency was inconclusive: 63.1 µM [inhibitor, partial curve, poor fit].
In the case of `CSc1ccccc1OCc1cc(C(=O)N2CCN(c3ncccn3)CC2)no1`, the Potency is reported as inconclusive: 39.8 µM [inhibitor, partial curve].
For `CC(SCc1cn2cc(Cl)ccc2n1)C(=O)O` (centres undefined), the Potency was active: 50.1 µM.
For `COc1ccc(/C=C2\CN(Cc3ccccc3)C/C(=C\c3ccc(OC)c(O)c3)C2=O)cc1O`, the Potency was inconclusive: 11.2 µM [inhibitor, full curve].
With `O=C(CSc1oc(-c2ccco2)nc1S(=O)(=O)c1ccc(Cl)cc1)NCC1CCCO1` (centres undefined) the Potency was inconclusive: 79.4 µM [inhibitor, partial curve].
With `CC[C@]12c3[nH]c4ccc(OC)cc4c3CCN1C(=O)C(CC(=O)NC(C)(C)C)C[C@@H]2C(=O)N1CCN(C(=O)c2ccco2)CC1` (some centres undefined) the Potency was “inactive”.
For `C#CCSc1nc2sc3c(c2c(=O)n1-c1cccc(OC)c1)CCN(C(C)=O)C3`, the Potency was active: 89.1 µM.
`CCOc1ccc(/C(O)=C2/C(=O)C(=O)N(c3cc(C)on3)C2c2ccc(C(=O)OC)cc2)cc1` (centres undefined) was tested, and the Potency was inconclusive: 89.1 µM [inhibitor, single point].
For `O=[n+]1c2c(n([O-])c3cc(F)c(N4CCCC4)cc31)CCC2`, the Potency was inconclusive: 56.2 µM [inhibitor, partial curve].
In the case of `CCCCN(C(=O)c1cc(S(=O)(=O)N2CCCCCC2)ccc1OC)c1ccccc1`, the Potency is reported as “inactive”.
`COc1cc(Cl)c(NC(=O)c2cc(S(=O)(=O)N3CCOCC3)cn2C)c(OC)c1` was tested, and the Potency was “inactive”.
In the case of `Cc1nc(SCc2nc3c(C)cccc3[nH]2)c2oc3ccccc3c2n1`, the Potency is reported as inconclusive: 56.2 µM [inhibitor, partial curve].
`COc1cc(S(=O)(=O)N2CCN(C(=O)c3ccccc3F)CC2)c(OC)cc1NC(C)=O` was tested, and the Potency was “inactive”.
With `CCN(CCCNC(=O)c1ccc(Sc2ccc(C)cc2)c(NC(C)=O)c1)c1cccc(C)c1` the Potency was inconclusive: 20 µM [inhibitor, full curve].
For `CCCCNc1c(-c2ccc(SC3CCCCC3)cc2)nc2ccccn12`, the Potency was inconclusive: 56.2 µM [inhibitor, partial curve, poor fit].
With `CC1CCN(C(=S)c2cn(Cc3ccc(F)cc3)c3ccccc23)CC1` the Potency was inconclusive: 56.2 µM [inhibitor, partial curve].
With `Cc1[nH]c2ccccc2c1C(=O)CSc1ccc(Cl)cc1` the Potency was active: 22.4 µM.
For `COc1ccc(-c2n[nH]c3c2C(c2ccc(Cl)cc2Cl)NC3=O)cc1` (centres undefined), the Potency was inconclusive: 44.7 µM [inhibitor, partial curve, poor fit].
With `O=C(O)c1c[nH]c(=S)n1-c1ccc(F)cc1` the Potency was inconclusive: 56.2 µM [inhibitor, partial curve].
`CC(=O)Nc1sc(N/N=C/c2ccccc2F)nc1-c1ccc(C)cc1` was tested, and the Potency was inconclusive: 63.1 µM [inhibitor, partial curve, poor fit].
`COc1ccc(C2c3c(-c4ccccc4O)n[nH]c3C(=O)N2Cc2ccco2)cc1OC` (centres undefined) was tested, and the Potency was inconclusive: 56.2 µM [inhibitor, partial curve].
With `CC1CCCN(C(=S)Nc2ccc(Nc3ccccc3)cc2)C1` (centres undefined) the Potency was inconclusive: 70.8 µM [inhibitor, partial curve, poor fit].
In the case of `COC(=O)c1[nH]c(C)c(/C(O)=C2\C(=O)C(=O)N(CCN3CCOCC3)C2c2ccc(C)o2)c1C` (centres undefined), the Potency is reported as inconclusive: 89.1 µM [inhibitor, single point].
For `Cc1cccc(Nc2nc(Nc3cccc(C)c3)nc(N3CCOCC3)n2)c1`, the Potency was “inactive”.
For `CS(=O)(=O)Nc1cccc(-c2cn3c(n2)SCC3)c1`, the Potency was active: 56.2 µM.
In the case of `Cn1c(=O)c(=O)n(C)c2cc(N3CCOCC3)c(NS(=O)(=O)c3ccc([N+](=O)[O-])cc3)cc21`, the Potency is reported as inconclusive: 50.1 µM [inhibitor, partial curve].
In the case of `Cc1sc(C2C(C#N)=C(N)N(c3cccc(Cl)c3)C3=C2C(=O)CCC3)cc1CN1CCOCC1` (centres undefined), the Potency is reported as inconclusive: 50.1 µM [inhibitor, partial curve].
For `CCn1c(C(C)NC(=O)c2ccccc2C)n[nH]c1=S` (centres undefined), the Potency was inconclusive: 39.8 µM [inhibitor, single point].
`O=C(Nc1ccccc1)C1CC2CCC1C2` (centres undefined) was tested, and the Potency was “inactive”.
For `COc1ccc(CN2CCN(Cc3ccc(C)cc3)CC2)c(OC)c1`, the Potency was active: 3.16 µM.
With `COc1ccc(/C=N/NC(=O)c2cc(C34CC5CC(CC(C5)C3)C4)[nH]n2)cc1O` the Potency was inconclusive: 89.1 µM [inhibitor, single point].
`O=S(=O)(NCc1ccc(F)cc1)c1ccc2[nH]c3c(c2c1)CCCCC3` was tested, and the Potency was active: 44.7 µM.
With `CSc1nnc(N2C(=O)C(O)=C(C(=O)c3ccco3)C2c2cccc(Cl)c2)s1` (centres undefined) the Potency was inconclusive: 3.55 µM [inhibitor, single point].
In the case of `COc1ccc(NC2=C(NCCO)C(=O)c3ccccc3C2=O)cc1`, the Potency is reported as inconclusive: 44.7 µM [inhibitor, single point].
With `CCOC(=O)c1c(C=O)c(C)n(Cc2ccc(Cl)cc2)c1C` the Potency was inconclusive: 56.2 µM [inhibitor, partial curve].
In the case of `Oc1ccccc1N1CCN(CC(O)COCc2ccccc2Cl)CC1` (centres undefined), the Potency is reported as active: 20 µM.
In the case of `O=C(CSc1nnc(CNC(=O)c2ccccc2)o1)Nc1nccs1`, the Potency is reported as inconclusive: 89.1 µM [inhibitor, single point].
`O=C1C(CN2CCCC2)CCCC1CN1CCCC1` (centres undefined) was tested, and the Potency was “inactive”.
For `O=C(CN(Cc1ccccc1)S(=O)(=O)c1ccc(Br)cc1)NCc1ccco1`, the Potency was inconclusive: 63.1 µM [inhibitor, partial curve, poor fit].
For `O=C(CSc1ccc2c(c1)OCCO2)Nc1ccc(N2CCOCC2)cc1`, the Potency was “inactive”.
For `CCOC(=O)C1CCCN(Cc2nc(N)nc(Nc3ccccc3OC)n2)C1` (centres undefined), the Potency was active: 56.2 µM.
With `Cn1cncc1C#Cc1c(-c2ccsc2)sc2ccccc12` the Potency was inconclusive: 25.1 µM [inhibitor, full curve].
With `CCN(C(=O)CN1C(=O)NC2(CCCc3ccccc32)C1=O)c1ccc(F)cc1` (centres undefined) the Potency was “inactive”.
With `O=C(COc1c(Cl)cccc1Cl)NN1C(=O)CSC1=S` the Potency was inconclusive: 17.8 µM [inhibitor, full curve, poor fit].
With `CC(C)c1ccc(NC(=O)C2CCN(c3ncnc4c3nc3n4CCCCC3)CC2)cc1` the Potency was inconclusive: 44.7 µM [inhibitor, partial curve].
In the case of `COc1ccc(C)cc1NC(=O)c1ccc2c(c1)N(Cc1cccc(Cl)c1)C(=O)c1ccccc1S2=O` (centres undefined), the Potency is reported as inconclusive: 89.1 µM [inhibitor, partial curve].
In the case of `COCCNCCCOc1ccc(Cl)cc1Br`, the Potency is reported as active: 7.94 µM.
For `Cc1c(C)n(CCC#N)c2ccccc12`, the Potency was inconclusive: 56.2 µM [inhibitor, partial curve].

From PubChem BioAssay AID504339 (National Center for Advancing Translational Sciences (NCATS), 2011)
% is scaled to controls: 0 for no effect and ±100 for the full control effect; potency is read from the fitted curve at half-maximal effect; tags tell the direction and shape of the fitted curve.
Also: nearly all actives have a fitted effect of over 50% in size.
